Some of the results follow. These are noisy estimates, calculated here from bound and input reads.

The target of the experiment is T1, Pho4 (S. cerevisiae) (UniProt P07270).
T1 sequence: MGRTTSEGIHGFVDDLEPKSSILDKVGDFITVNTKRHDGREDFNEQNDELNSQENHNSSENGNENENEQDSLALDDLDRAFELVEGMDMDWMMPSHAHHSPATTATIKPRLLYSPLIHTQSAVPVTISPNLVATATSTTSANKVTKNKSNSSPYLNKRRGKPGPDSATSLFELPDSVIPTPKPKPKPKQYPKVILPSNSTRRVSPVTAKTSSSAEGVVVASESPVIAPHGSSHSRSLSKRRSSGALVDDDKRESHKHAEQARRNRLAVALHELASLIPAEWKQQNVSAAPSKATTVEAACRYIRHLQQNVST
Nature of the experiment: relative binding free energy (BET-seq); higher = weaker binding. To be noted: reference: library average.
As to TTCTGCACGTGTGTCG, the “relative binding free energy” value was -0.167 kJ/mol. The value for GTTAGCACGTGTCGCG was 0 kJ/mol.

Regarding TAAGTCACGTGGAGGC, the “relative binding free energy” value amounted to 0.502 kJ/mol. Regarding CTGTCCACGTGGGTGA, the “relative binding free energy” value was -0.0837 kJ/mol. In the case of TGTTACACGTGGTCAT it was 0.126 kJ/mol; in that of GGGATCACGTGCGGAG, 0.795 kJ/mol.

On to TGGCACACGTGGAGCG, for which the “relative binding free energy” value amounted to 0.251 kJ/mol.

With TTGATCACGTGAGTAT, the “relative binding free energy” value is 1.21 kJ/mol.

ATTGTCACGTGTTCTC: the “relative binding free energy” value turned out to be 1.05 kJ/mol.

On to TCGGTCACGTGGTGTG, for which the “relative binding free energy” value is 0.377 kJ/mol. The value for TACATCACGTGCGGGG was 0.293 kJ/mol; that for GGGTTCACGTGGGGGA was 1.09 kJ/mol; that for AGAGACACGTGTAAGG was 0.209 kJ/mol. The value for TGATGCACGTGTTGGC was -0.0418 kJ/mol; that for TAATGCACGTGTTGTG was 0.0837 kJ/mol. The value for GAGCGCACGTGCAGGG was -0.0837 kJ/mol; that for ATGGTCACGTGACAGG was 0.293 kJ/mol; that for TGGTGCACGTGTAACT was 0.126 kJ/mol. As for TGTACCACGTGTTGGT, the “relative binding free energy” value is -0.586 kJ/mol. The value for GTGAGCACGTGGGTAC was -0.502 kJ/mol. The value for AATGCCACGTGGGGGC was -1.09 kJ/mol; that for TTGGACACGTGTTACT was -0.0837 kJ/mol. In the case of GTGTGCACGTGGACGT it was 0.0418 kJ/mol; in that of TTTGACACGTGGACGT, 0.335 kJ/mol.

Turning to CGTGGCACGTGGGTAC, the “relative binding free energy” value was -1.51 kJ/mol. In the case of TGTTGCACGTGTCTGT it was -0.251 kJ/mol; in that of GCATTCACGTGGGGGA, 0.209 kJ/mol; in that of TGATTCACGTGTAAAT, 1.46 kJ/mol. The value for TCGCGCACGTGTGTGG was -0.251 kJ/mol; that for TTAAACACGTGTGTAT was -0.418 kJ/mol. Turning to GTATTCACGTGAGTAG, the “relative binding free energy” value was 1.76 kJ/mol. Turning to TTGCGCACGTGACTTG, the “relative binding free energy” value turned out to be 0.293 kJ/mol. In the case of GGGGGCACGTGCAGGT it was -0.251 kJ/mol.

With CATATCACGTGTTTGA, the “relative binding free energy” value worked out at 0.418 kJ/mol. Consider TGGCTCACGTGCGTTA, for which the “relative binding free energy” value was found to be 1.21 kJ/mol. TGGAGCACGTGTTGAG: the “relative binding free energy” value was -0.251 kJ/mol. The value for AGCATCACGTGTTGGG was -0.126 kJ/mol; that for TAATGCACGTGGTCAT was -0.586 kJ/mol. In the case of GAGTACACGTGGGAGT it was 0.126 kJ/mol. The value for ATTAACACGTGGGAAG was -0.0418 kJ/mol. For CTTGACACGTGTAAGT, the “relative binding free energy” value stood at 0.92 kJ/mol.

TTAGGCACGTGATGAA: the “relative binding free energy” value is -0.167 kJ/mol. In the case of CATGTCACGTGGGGGA it was -0.126 kJ/mol; in that of GCCGTCACGTGCGGGG, -0.0418 kJ/mol. The value for CGGTTCACGTGGCAGG was 1.34 kJ/mol; that for GGCTGCACGTGCGTGG was -0.669 kJ/mol.

Consider GGGGGCACGTGGTGCT, for which the “relative binding free energy” value was -0.92 kJ/mol. The value for GCGGGCACGTGGTATG was -0.377 kJ/mol; that for CGGCTCACGTGTGGTT was 0.669 kJ/mol; that for AATGGCACGTGCGGTG was -0.335 kJ/mol. In the case of TTGGGCACGTGTGAGA it was 0.335 kJ/mol; in that of GATGTCACGTGGAGGG, 1.09 kJ/mol. In the case of AAGGGCACGTGTAGTT it was -0.293 kJ/mol. In the case of ATACTCACGTGAGTGT, the “relative binding free energy” value worked out at 1.17 kJ/mol. In the case of AGATTCACGTGGTTAT it was 0.795 kJ/mol; in that of CATTACACGTGTTAGT, 0.753 kJ/mol. In the case of ATGCACACGTGGGGAT it was -0.544 kJ/mol; in that of TGTAGCACGTGGAGTT, 0.251 kJ/mol. In the case of TAAGTCACGTGGTAAT it was 0.0837 kJ/mol.

With GGTGTCACGTGATAAA, the “relative binding free energy” value is 0.879 kJ/mol.

On to TTTTTCACGTGTGCAA, for which the “relative binding free energy” value was determined as 0.962 kJ/mol. The value for CGGTACACGTGGGTGT was -0.711 kJ/mol; that for ATTTTCACGTGGGAGG was 0.502 kJ/mol; that for TATTGCACGTGCGTGA was -0.46 kJ/mol.

With GTTTACACGTGCTTGT, the “relative binding free energy” value came out at 0.502 kJ/mol. In the case of GTCGGCACGTGAGTAG it was 0.209 kJ/mol. The value for TTGTGCACGTGATCAT was 0.46 kJ/mol. In the case of GTGGACACGTGCGGCT it was -0.335 kJ/mol. As to AAAGTCACGTGGTGAT, the “relative binding free energy” value was 0.586 kJ/mol. In the case of TGGAGCACGTGTGGTC it was 0.209 kJ/mol; in that of AATTTCACGTGTGCGG, 0.669 kJ/mol; in that of TGTTCCACGTGGTTAG, -0.544 kJ/mol. In the case of CTTTGCACGTGTGGAG it was 0 kJ/mol. In the case of TTGACCACGTGGGGTT, the “relative binding free energy” value was -0.879 kJ/mol. The value for ATGGTCACGTGATAGA was 0.879 kJ/mol; that for AGGTGCACGTGGCTGT was -0.502 kJ/mol. The value for GTAGTCACGTGTTACG was 0.711 kJ/mol; that for AATCTCACGTGGATGG was 1.38 kJ/mol. The value for CTAAGCACGTGGTTAG was -0.126 kJ/mol; that for TTATCCACGTGTAAGT was 0.586 kJ/mol. Regarding CGAGGCACGTGGGATA, the “relative binding free energy” value was -0.92 kJ/mol. GTCGCCACGTGGTGGG: the “relative binding free energy” value was -0.586 kJ/mol. The value for GTTTCCACGTGGTGAT was 0.795 kJ/mol; that for GCAGGCACGTGATGGG was 0.335 kJ/mol. With ATTTACACGTGTTGGT, the “relative binding free energy” value is 0.377 kJ/mol.

As for AGTGGCACGTGAAAGT, the “relative binding free energy” value came to 0.795 kJ/mol. The value for TAACTCACGTGGGATG was 1.17 kJ/mol; that for TTTTTCACGTGAGATG was 1.72 kJ/mol. In the case of TGGTACACGTGTAGAT it was 1.13 kJ/mol; in that of GGAGACACGTGATGGT, 0.753 kJ/mol. In the case of TGATTCACGTGCTTGT it was 1.3 kJ/mol; in that of TTGATCACGTGATTGC, 0.92 kJ/mol; in that of TGTAGCACGTGGTTTC, -0.418 kJ/mol.

With ATCATCACGTGGCGGG, the “relative binding free energy” value was 0.795 kJ/mol.

Take GAAATCACGTGGGTGA: the “relative binding free energy” value worked out at 0.92 kJ/mol.

Regarding AAGCTCACGTGAAGGT, the “relative binding free energy” value was 1.63 kJ/mol. In the case of ACGGACACGTGAGGGT it was 0.879 kJ/mol. The value for TCGGGCACGTGGTTAC was 0.126 kJ/mol; that for GGTGACACGTGTATCT was 0.669 kJ/mol; that for TTCGGCACGTGGGAGT was -0.92 kJ/mol. In the case of CGGTCCACGTGCGGGT it was -0.0418 kJ/mol; in that of AGGGGCACGTGTGCAA, -0.418 kJ/mol; in that of GTTAGCACGTGTAGAT, 0.167 kJ/mol.

Consider CGGGGCACGTGGGCGT, for which the “relative binding free energy” value was -1.21 kJ/mol.

CAGGGCACGTGTGTCA: the “relative binding free energy” value is -0.126 kJ/mol.

On to CTAAGCACGTGGTAGG, for which the “relative binding free energy” value is -0.753 kJ/mol.

With AATTTCACGTGAAGGG, the “relative binding free energy” value came to 1.42 kJ/mol. In the case of GGCGTCACGTGAAGCG it was 1.72 kJ/mol. The value for TATTTCACGTGTTTAT was 1.21 kJ/mol; that for TGCTGCACGTGATTAT was 0.377 kJ/mol; that for TGGGCCACGTGCGCGG was -1.38 kJ/mol. As to AAGGGCACGTGGCGTA, the “relative binding free energy” value was -1.67 kJ/mol.

Consider ATGGTCACGTGGGTCT, for which the “relative binding free energy” value was -0.251 kJ/mol. The value for AAGTGCACGTGTTAGA was 0.209 kJ/mol; that for CGTCTCACGTGTGGAG was 1.26 kJ/mol.

The values are drawn from the BET-seq Pho4 binding data (Le et al. 2018).
